{
  "source": "the supplement of paper PMC11417369",
  "note": "± gives the standard deviation of the averaged measurements. Some of the results follow.",
  "data": [
    {"system": "PfAP2-EXP AP2 domain (GST-tagged)", "experiment": "gcPBM binding intensity (ln(normalized median fluorescence intensity)); higher = stronger DNA binding", "in_short": "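Each value is the highest Masliner-normalised natural-log median intensity across replicate spots of either orientation of a probe. The probes were primer-extended double-stranded 36-bp intergenic genomic sequences on an Agilent 4 × 180k array, alongside negative controls, exposed for 1 h to GST-tagged P. falciparum DNA-binding domains expressed in E. coli. Bound protein was picked up with Alexa488 anti-GST antibody and scanned at 488 nm.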", "values": [
      {"sequence": "ATATATAATCATCACACATGCAGCCCTGATGAAAAA [TGCATGCA_site687]", "gcPBM binding intensity (ln)": "8.77 ± 0.38"},
      {"sequence": "AATAATAAATAAAAATGTACACATACATTTCTATCC [XGTACX_site7057]", "gcPBM binding intensity (ln)": "8.2 ± 0.26"},
      {"sequence": "TATTAAAAGGTTAAAGCATGCATACATATATATGTT [TGCATGCA_site865]", "gcPBM binding intensity (ln)": "9.44 ± 0.32"},
      {"sequence": "TTTTTGTTACCTATTGTGCACTTCATATAAATTAAA", "gcPBM binding intensity (ln)": "9.82 ± 0.35"},
      {"sequence": "TATAAATTTTTATTTACATGCAGTTATTATTTCCAT [TGCATGCA_site41]", "gcPBM binding intensity (ln)": "8.95 ± 0.3"},
      {"sequence": "ATATATATATATATATGTACATATTTATATTGTAAA [XGTACX_site8878]", "gcPBM binding intensity (ln)": "10 ± 0.4"},
      {"sequence": "ATATATATATATATATATATTTATATGTGAAAACCC [CACACA_negctrl_site845]", "gcPBM binding intensity (ln)": "10 ± 0.22"},
      {"sequence": "ATATATATATATATGTGTACTTATATATTTAAAAAA [XGTACX_site1761]", "gcPBM binding intensity (ln)": "10 ± 0.27"},
      {"sequence": "TTATACCTGATTTAGGTGCTATAAATTTGTGTTTTT", "gcPBM binding intensity (ln)": "8.43 ± 0.16"},
      {"sequence": "GTAATTTTATATGGTTGTACATATATATATATATAT [XGTACX_site6659]", "gcPBM binding intensity (ln)": "10.2 ± 0.18"},
      {"sequence": "CAACAACAAAAAAAAAAATAATAATAATAAAAAATA [TGCATGCA_negctrl_site271]", "gcPBM binding intensity (ln)": "8.34 ± 0.49"},
      {"sequence": "CGCATAAAGACAAGAACACACATATATATTGTAGTA [CACACA_site5938]", "gcPBM binding intensity (ln)": "8.47 ± 0.34"},
      {"sequence": "ATATACAAAGGATTAACACACATATTATTATATATA [CACACA_site1880]", "gcPBM binding intensity (ln)": "8.43 ± 0.36"},
      {"sequence": "AGAAAAAAATAATGTACACACACATATATGTTTATA [CACACA_site7946]", "gcPBM binding intensity (ln)": "8.51 ± 0.38"},
      {"sequence": "TATTTTTTAAAAAAATGTCATAAAATTTCTTTTTTC [XGTACX_negctrl_site271]", "gcPBM binding intensity (ln)": "8.03 ± 0.35"},
      {"sequence": "CTTTCTATATAAAATCGTACATATATAATATTATAT [XGTACX_site5807]", "gcPBM binding intensity (ln)": "8.52 ± 0.38"},
      {"sequence": "TAAATGTCTGTTAATGCACACGATATGTCTATATAT [CACACA_site2352]", "gcPBM binding intensity (ln)": "8.69 ± 0.16"},
      {"sequence": "TATATTAAGAAACACACACACATATATATATATATA [CACACA_site1609]", "gcPBM binding intensity (ln)": "10.2 ± 0.3"},
      {"sequence": "GAAATTATAAATTGGACACACACATAAAAAATATGT [CACACA_site7957]", "gcPBM binding intensity (ln)": "8.52 ± 0.38"},
      {"sequence": "TTCCTATTTCCTATGTGTACTTATAAATAAGTGTCT [XGTACX_site3725]", "gcPBM binding intensity (ln)": "9.01 ± 0.39"},
      {"sequence": "TCCGCATGTACATGGGTGCACATAACACCCATTTAA [GTGCAC_site9881]", "gcPBM binding intensity (ln)": "8.825 ± 0.035"},
      {"sequence": "TATATATAAGATTGATGTACGATTTTGGTGTCTTAT [XGTACX_site2611]", "gcPBM binding intensity (ln)": "8.47 ± 0.33"},
      {"sequence": "TGTTATGAGAACAGCACACAAGCTACATCATATATA [CACACA_site870]", "gcPBM binding intensity (ln)": "8.37 ± 0.35"},
      {"sequence": "TATTATAGTATATATTGTACATATATATATTTTTTA [XGTACX_site8831]", "gcPBM binding intensity (ln)": "8.35 ± 0.37"},
      {"sequence": "ATAATAATATATAGTACACACAAAAATGGAAGTAAA [CACACA_site3318]", "gcPBM binding intensity (ln)": "8.97 ± 0.34"},
      {"sequence": "ATAGTTTTTCCAATTCAAAAAAAAAAAAAAAAAAAA [CACACA_negctrl_site969]", "gcPBM binding intensity (ln)": "7.84 ± 0.29"},
      {"sequence": "TAAAAATATTATAATGCATGCAAAATATTGTTATAA [TGCATGCA_site244]", "gcPBM binding intensity (ln)": "9.74 ± 0.014"},
      {"sequence": "AAAGTATAAATAAATACACACATATTTATTTATATA [CACACA_site7375]", "gcPBM binding intensity (ln)": "8.37 ± 0.36"},
      {"sequence": "GAGAGGATCATCAATTCACACACATAAAAATGAAGT [CACACA_site9010]", "gcPBM binding intensity (ln)": "8.54 ± 0.4"},
      {"sequence": "AACATATGATTAAACTGTACAAGAAAAATATAACAT [XGTACX_site4477]", "gcPBM binding intensity (ln)": "9.23 ± 0.57"},
      {"sequence": "GTAATACCCAAACACACACACATACCCATATATATA [CACACA_site5510]", "gcPBM binding intensity (ln)": "8.88 ± 0.52"},
      {"sequence": "AGAAAGTAAAGCTGTTGTACTATTATATATATTTTA [XGTACX_site8090]", "gcPBM binding intensity (ln)": "8.59 ± 0.31"},
      {"sequence": "TTTCTTTTTAAATAATAATGTATAATAAAAAGTTCA [TGCATGCA_negctrl_site195]", "gcPBM binding intensity (ln)": "8.11 ± 0.35"},
      {"sequence": "TTTGTTTGATATATGTGTACATATATATATTATGCT [XGTACX_site3522]", "gcPBM binding intensity (ln)": "8.67 ± 0.34"},
      {"sequence": "AAGTACAATTCATGTATGCACTTTATTATATTTTAT", "gcPBM binding intensity (ln)": "8.35 ± 0.29"},
      {"sequence": "TATAATATGTATATCTGTACATATTTTAAATCTAAT [XGTACX_site2426]", "gcPBM binding intensity (ln)": "8.08 ± 0.24"},
      {"sequence": "AAGATAAAATAATAAAGTACACATATAAATTGAAAA [XGTACX_site2113]", "gcPBM binding intensity (ln)": "8.85 ± 0.62"},
      {"sequence": "ATCATATCCACCAAATGAATAATATAAAATAATATA [XGTACX_negctrl_site193]", "gcPBM binding intensity (ln)": "8.44 ± 0.57"},
      {"sequence": "AAATAACATAATAAGGGTACATTAATTTCGATAATG [XGTACX_site835]", "gcPBM binding intensity (ln)": "8.51 ± 0.25"},
      {"sequence": "TATATATATATATATGCACACATTTATACAATTTTA [CACACA_site2986]", "gcPBM binding intensity (ln)": "10.2 ± 0.3"},
      {"sequence": "ATCAAATTATAATCATGTACAAATAAAAAAAAAAAA [XGTACX_site313]", "gcPBM binding intensity (ln)": "8.43 ± 0.53"},
      {"sequence": "AGAAAAAAAAAAAAAAAACACACGGTACATCCAAAG [CACACA_site124]", "gcPBM binding intensity (ln)": "8.66 ± 0.53"},
      {"sequence": "AAATATCTACAAATATGTACATATTTTTTTTGGCTT [XGTACX_site6301]", "gcPBM binding intensity (ln)": "8.72 ± 0.26"},
      {"sequence": "TATTTTGTCATAGAACGTACTTATAAATATTTTTTT [XGTACX_site8424]", "gcPBM binding intensity (ln)": "8.67 ± 0.37"},
      {"sequence": "ATAGAAGCTGTTGACGAAGAAAAAAAAAAAAAAAAA [CACACA_negctrl_site110]", "gcPBM binding intensity (ln)": "8.37 ± 0.56"},
      {"sequence": "TAGATATTTTTGAAAAGTACAAATTTTTAAAAATTA [XGTACX_site4420]", "gcPBM binding intensity (ln)": "8.34 ± 0.33"},
      {"sequence": "GTATGATTACAAGAAAGTAGTCCACTTTAACAACAA [CACACA_negctrl_site1304]", "gcPBM binding intensity (ln)": "8.59 ± 0.37"},
      {"sequence": "TTATATAATGACAAAAAAAAAAAAAAAAAAAAAAAA [CACACA_negctrl_site1467]", "gcPBM binding intensity (ln)": "8.04 ± 0.36"},
      {"sequence": "TAATTTATCCTATAATGTACTTATAAAATATATCAT [XGTACX_site1460]", "gcPBM binding intensity (ln)": "8.32 ± 0.26"},
      {"sequence": "AGTCCATTTTATTATTGTACATATTAATTTATATCA [XGTACX_site672]", "gcPBM binding intensity (ln)": "9.08 ± 0.3"},
      {"sequence": "ATTCAGAGTATATAAAAATTAATATATACATAATAT [CACACA_negctrl_site1782]", "gcPBM binding intensity (ln)": "8.44 ± 0.58"},
      {"sequence": "ATGTACATAAACCGCACACATATAAAAAAATAAATA [CACACA_site5571]", "gcPBM binding intensity (ln)": "8.71 ± 0.35"},
      {"sequence": "ATATATATATAAATATGTACATATATACATATATAC [XGTACX_site2374]", "gcPBM binding intensity (ln)": "9.515 ± 0.092"},
      {"sequence": "AATATTTTGTTATTTATTTAATCTAATATTACTATC [CACACA_negctrl_site4]", "gcPBM binding intensity (ln)": "8.43 ± 0.16"},
      {"sequence": "TAGGAAAATTACAAAAGTACTTGGCACATAATAATG [XGTACX_site6005]", "gcPBM binding intensity (ln)": "8.75 ± 0.38"},
      {"sequence": "AAAAAAAAAAAATACACACAAACACAAATTAAATAA [CACACA_site3809]", "gcPBM binding intensity (ln)": "8.6 ± 0.62"},
      {"sequence": "ATTATAGAATATTGAAGTACAAAATTTAAAATAAGT [XGTACX_site1468]", "gcPBM binding intensity (ln)": "8.75 ± 0.2"}
    ]}
  ]
}
